# The whole screen tested about 410,000 compounds, of which about 7,200 (1.8%) were called active. Inconclusive results, whose numbers are uncertain, are shown with a selection of clear calls. Calls follow the shape of the dose curve; as a rule, active = well fitted activation curve with a large enough effect; inconclusive = small, poorly fitted or top-dose-only effect, or another doubt; inactive = no such curve, though single readings can be large or run the other way. No potency is given beside an inconclusive call; the fits are too rough.
# Assay: qHTS of TDP-43 Inhibitors; also: nearly all actives have a fitted effect of over 50% in size; as to growth rescue (activation): % of control where 0% means no effect
# Details: TDP-43 expressing yeast growth rescue, BacTiter-Glo, 24 h; growth rescue (activation): at 46.1 µM (top of the series) unless noted
# Procedure, shortened: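 Yeast expressing TDP-43 (pregrown in raffinose, seeded at OD600=0.02 in galactose medium) exposed to compounds 24 hr at 30 deg C. Growth read by BacTiter-Glo luminescence; rescue of toxicity appears as increased signal.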
# Potency is read from the fitted curve at half-maximal effect; tags tell the direction and shape of the fitted curve.
Structure (SMILES),Potency,growth rescue (activation)
Fc1ccc(-c2cc3nc4c(c(N5CCOCC5)n3n2)CCCC4)cc1,active: 15.8 µM,
CC(C)=CC(=O)Nc1ccc(Br)cc1,"inconclusive [activator, single point]",
CC(=O)c1ccc(NC(=S)Nc2ccn(Cc3ccc(Br)cc3)n2)cc1,"inconclusive [activator, single point]",
Cc1nc2ccccc2c2c(N)c3ccccc3n12,"inconclusive [activator, single point]",
O=C(OCCN1C(=O)c2ccccc2C1=O)c1cccc(OC(F)F)c1,"inconclusive [activator, partial curve]",
Cc1ccc(Sc2ccc(NC(=O)CCl)cc2)cc1C,"inconclusive [activator, full curve]",
CSc1ccccc1NC(=O)c1ccccc1N(C)S(C)(=O)=O,"inconclusive [activator, partial curve]",
c1ccc(-c2csc3ncnc(NCC4COc5ccccc5O4)c23)cc1 (stereo not given),"inconclusive [activator, single point]",
O=C(CSc1nnc2n1CCCN2C(=S)Nc1ccc(Cl)cc1)c1ccccc1,"inconclusive [activator, partial curve]",
CC(C)NC(=O)c1cc(C2CCCCN2C(=O)OCCF)on1 (stereo not given),inactive,
O=S(=O)(/C=C/c1ccccc1)n1cnc2ccccc21,"inconclusive [activator, full curve, poor fit]",
Cc1cc(Cl)c(OCCCn2cncn2)c(Br)c1,"inconclusive [activator, single point]",
NNc1nc(-c2ccccc2)cc(-c2ccc(Br)cc2)n1,"inconclusive [activator, single point]",
CCOC(=O)CSc1nnc(CNc2ccc(Cl)cc2)n1-c1ccccc1,"inconclusive [activator, single point]",
O=C(Nc1ccc(C(=O)N2CCCc3ccccc32)cc1)c1cccs1,"inconclusive [activator, single point]",
Cc1nn(-c2ccc(Cl)cn2)c2c1C(=O)CC(C)(C)C2Br (stereo not given),"inconclusive [activator, single point]",
COc1ccc(C(=O)OCC(=O)c2cc(OC)ccc2OC)c(OC)c1,"inconclusive [activator, partial curve]",
Cc1cc(O)c(C2(O)C(=O)Nc3cc(Br)ccc32)cc1C (stereo not given),inactive,
Cc1ccc2nc(N3CCN(C(=O)C4CC4)CC3)sc2c1,"inconclusive [activator, partial curve]",
O=C(O)c1ccc2noc(-c3ccccc3)c2c1,"inconclusive [activator, partial curve]",
CCC(=O)Nc1cccc(NC(=S)NC(=O)c2cccc(C)c2)c1,"inconclusive [activator, partial curve]",
OC(c1cccc(Cl)c1)c1nc(-c2cccc3cccnc23)cs1 (stereo not given),"inconclusive [activator, partial curve]",
CCN(C(=O)Nc1cccc(Cl)c1)c1ccccc1,"inconclusive [activator, single point]",
O=C(CC12CC3CC(CC(C3)C1)C2)Nc1ccc(C(=O)O)cc1,"inconclusive [activator, single point]",

Structure (SMILES),Potency,growth rescue (activation)
O=C(Oc1c(Cl)cc(Cl)c2cccnc12)N1CCCCC1,"inconclusive [activator, single point]",
COc1c2occc2cc2ccc(=O)oc12,"inconclusive [activator, partial curve]",
O=C(NC(=S)NCc1ccc(F)cc1)c1ccccc1,active: 22.4 µM,
Oc1ccc(C[C@H]2CNC(=S)N2CC2CCCN2C[C@H](Cc2ccccc2)N2C[C@H](Cc3ccc(O)cc3)N(CCc3ccccc3)C2=S)cc1 (stereo not given in full),"inconclusive [activator, single point]",
CCc1cc2cc(C)ccc2nc1SCC(=O)N1CCN(C(=O)c2ccco2)CC1,"inconclusive [activator, single point]",
Cc1cccc(N2CCN(C(=O)c3c(C)oc4ncnc(N5CCCCC5)c34)CC2)c1C,active: 35.5 µM,
CC(=O)Nc1ccc(Nc2cc(C)nc3c(-c4ccc(Cl)cc4)cnn23)cc1,active: 3.16 µM,
COc1ccc(C(=O)N/C(=C\c2ccccc2)C(=O)NCCCn2ccnc2)cc1,"inconclusive [activator, partial curve, poor fit]",
O=C1c2ccccc2-c2cc(Br)ccc2NC1O (stereo not given),"inconclusive [activator, full curve]",
Cc1ccc(NC(=O)Cn2cc3c(n2)CCCCC3)cc1,,inactive: -4.78% [at 9.22 µM]
COC(=O)CS(=O)(=O)c1nnc([C@H](Cc2ccccc2)NC(=O)OC(C)(C)C)o1,active: 35.5 µM,
CCOC(=O)c1ccccc1NC(=O)c1cc2c(=O)oc3ccc(C)cc3c2s1,inactive,
CC(=O)c1ccc(-c2cccs2)s1,"inconclusive [activator, partial curve]",
CC1=C(C(=O)N2CCN(c3cccc(C(F)(F)F)c3)CC2)C2(CCCCC2)OC1=O,inactive,
CCOC(=O)C1=C(O)c2ccccc2C(=O)/C1=C\c1ccc(CC)cc1,"inconclusive [activator, single point]",
COc1ccccc1CNC(=O)CN1C(=O)CSc2ccc(S(=O)(=O)N3CCCCC3)cc21,inactive,
CCN(c1ccccc1)c1ncnc2c1cnn2-c1ccc(C)cc1C,"inconclusive [activator, partial curve]",
COc1ccc(-c2csc(C(C)(NC(C)=O)c3ccc(OC)cc3)n2)cc1 (stereo not given),"inconclusive [activator, full curve, poor fit]",
Cc1cc(C)nc(SCC(=O)Nc2ccc(S(=O)(=O)N3CCCCC3)cc2)n1,"inconclusive [activator, single point]",
Cc1cccc2sc(NC(=O)CN(C)S(=O)(=O)c3ccc(Br)s3)nc12,"inconclusive [activator, single point]",
COc1cc2[nH]c(C(=O)N3CCc4ccccc43)cc2c(OC)c1OC,"inconclusive [activator, single point]",
COc1ccc(OC)c(-n2cnc3cc(C(=O)NC4CCCCCC4)ccc32)c1,inactive,
CCOc1ccc(NC(=O)CC2C(=O)OCCN2CC)cc1 (stereo not given),,inconclusive: -91.9% [activator]
Cc1nc(-c2ccccn2)nc(SCC(=O)N2CCOCC2)c1Cl,inactive,

Structure (SMILES),Potency,growth rescue (activation)
CCC(C)C(N)C(=O)N1CCCC1C(=O)NC(C(=O)O)C(C)CC (stereo not given),inactive,
COCCCn1c(C(=O)N2CC(C)OC(C)C2)cc2c(=O)n3cccc(C)c3nc21 (stereo not given),inactive,
Cc1ccccc1CCNC(=O)c1ccc2c(c1)c(C)c(C)n2Cc1ccccc1,inactive,
O=C(c1cccs1)N1CCN(c2ccc(F)cc2)CC1,"inconclusive [activator, partial curve]",
COc1cc(CN2c3ccccc3C(=O)CS2(=O)=O)cc(OC)c1,"inconclusive [activator, single point]",
CCOC(=O)C1CCN(C(=O)C2CCN(c3nc4ccc(OC)cc4s3)CC2)CC1,"inconclusive [activator, partial curve]",
COc1ccccc1OCCn1c(=O)sc2ccccc21,"inconclusive [activator, single point]",
Cc1ccc(C)c(N2CCN(C(=O)c3csc(C)c3C)CC2)c1,"inconclusive [activator, single point]",
CN(CC(=O)Nc1cccc(C(F)(F)F)c1)S(=O)(=O)c1cccs1,"inconclusive [activator, partial curve]",
Cc1cccn2cc(CSc3nnc(Nc4ccc(C(C)C)cc4)s3)nc12,"inconclusive [activator, full curve]",
O=C(Cn1c(-c2cccs2)cc2ccccc21)NCCc1ccc(Cl)cc1,inactive,
O=C(O)c1cncc(C#CCC2CCCCC2)c1,active: 14.1 µM,
O=C(NCc1ccc(F)cc1)c1ccccc1OCc1ccccc1,inactive,
Cn1c(=O)c(S(=O)(=O)C(C)(C)C)c(O)c2ccccc21,active: 2.82 µM,
CCN(C(=O)CSc1n[nH]c(-c2ccccc2)n1)c1c(N)n(Cc2ccccc2)c(=O)[nH]c1=O,inactive,
C/C(CC(=O)Nc1cc(Cl)ccc1Cl)=N\NC(N)=S,"inconclusive [activator, single point]",
CCn1ncc(Cl)c1C(=O)NC(=S)Nc1c(C)cc(C)cc1[N+](=O)[O-],"inconclusive [activator, partial curve, poor fit]",
O=C(COc1ccc(Cl)cc1Br)NC(=O)NC1CCCC1,"inconclusive [activator, single point]",
Cn1c(=O)n(Cc2ccc(F)cc2)c(=O)c2c1nc1n2CCN1Cc1ccco1,"inconclusive [activator, partial curve]",
O=C(CNC(=O)c1cccc([N+](=O)[O-])c1)OCCCC(=O)c1ccc(F)cc1,"inconclusive [activator, partial curve]",
CCCCc1cc(=O)oc2c(C)c(OCC(=O)N3CCCC3)ccc12,inactive,
Cc1ccc(-c2nc(SCC(=O)NCc3ccco3)c3c(=O)n(C)c(=O)n(C)c3n2)cc1,"inconclusive [activator, partial curve]",

# Reference: PubChem BioAssay AID652104 (National Center for Advancing Translational Sciences (NCATS), 2013)
